{"source": "the supplement of paper PMC4723716", "note": "± gives the uncertainty stated by the source. The full ranking holds about 9,900 compounds; the median of “viability index relative to DMSO control” is about 1, and the lowest 2% start at about 0.85. The list shows a part of the results."}
{"system": "Plasmodium falciparum NF54 stage V gametocytes", "assay": "viability index relative to DMSO control (fraction); higher = less gametocyte killing", "details": "2.5 µM, library set: Broad Institute DOS, incubation time: 72 h", "in_short": "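In 1,536-well plates, 10 µl of serum-free medium holding P. falciparum NF54 stage V gametocytes (0.75% gametocytemia, 1.25% hematocrit) received compound at 2.5 µM for 72 hr at 37°C in low oxygen. After one to two hours with 3 µl of 2.5 µM MitoTracker Red CMXRos containing 0.13% saponin, red particles of 20–70 µm2 were counted in a single field per well. Viability index is reported as the particle count over the plate mean of wells treated with solvent only.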"}
{"smiles": "CN(C)CC(=O)N1[C@@H](C#N)[C@@H](c2ccccc2-c2ccccc2F)[C@@H]1CO", "viability index": "1.14 ± 0.074"}
{"smiles": "Cc1noc(C)c1NC(=O)N1C[C@@H](O)COC[C@@H]2O[C@H](CC(=O)N[C@@H]3CCN(Cc4ccccc4)C3)CC[C@H]21", "viability index": "1.1 ± 0.021"}
{"smiles": "CC(C)(C)[S@@](=O)N1Cc2cc(C(=O)NC3CCC3)nc(-c3cccc(Br)c3)c2[C@H]1CCO", "viability index": "0.994 ± 0.058"}
{"smiles": "O=C(c1cccc(F)c1)N1CCCCN2[C@H](CO)[C@H](c3ccc(C#CC4(O)CCCC4)cc3)[C@H]2C1", "viability index": "1.01 ± 0.037"}
{"smiles": "CCC(=O)N1[C@@H]2Cn3c(ccc(-c4ccccc4F)c3=O)[C@H]1[C@@H](C(=O)NC1CCC1)[C@@H]2CO", "viability index": "1.1 ± 0.018"}
{"smiles": "CCCNC(=O)C[C@@H]1CC[C@H]2[C@@H](COC[C@H](O)CN2Cc2ccncc2)O1", "viability index": "1.06 ± 0.04"}
{"smiles": "O=C(c1ccccc1F)N1CC[C@@H]2[C@@H](CO)Nc3ccc(Br)cc3[C@@H]21", "viability index": "1.08 ± 0.091"}
{"smiles": "CCCC(=O)Nc1ccc2c(c1)OC[C@@H](C)N(S(=O)(=O)c1cn(C)cn1)C[C@@H](C)[C@H](OC)CN(C)C2=O", "viability index": "1.07 ± 0.12"}
{"smiles": "CN(C)CC(=O)N1[C@H](CO)[C@@H](c2ccc(C#CC3CCCCC3)cc2)[C@@H]1C#N", "viability index": "1.11 ± 0.085"}
{"smiles": "C[C@H](CO)N1C[C@H](C)[C@@H](CN(C)C(=O)Nc2ccccc2C(F)(F)F)OCc2cnnn2CCCC1=O", "viability index": "1.085 ± 0.0058"}
{"smiles": "O=C(Cc1ccncc1)N1CC(=O)N2[C@H](C1)[C@@H](c1ccc(Br)cc1)[C@@H]2CO", "viability index": "1.07 ± 0.024"}
{"smiles": "OC[C@H]1N[C@@H](CNCC2CCC2)[C@@H]1c1ccc(C2=CCCCC2)cc1", "viability index": "1.03 ± 0.028"}
{"smiles": "O=C1N[C@@H](Cc2ccccc2)COCc2cn(nn2)CC[C@@H]1Cc1cccc(F)c1", "viability index": "0.941 ± 0.099"}
{"smiles": "C[C@@H]1CCCCO[C@H](CN(C)C(=O)Nc2ccc(C(F)(F)F)cc2)[C@@H](C)CN([C@@H](C)CO)C(=O)c2cc(NS(=O)(=O)c3cn(C)cn3)ccc2O1", "viability index": "1.09 ± 0.019"}
{"smiles": "C/C=C/c1ccc([C@@H]2[C@H]3CN(S(=O)(=O)c4ccc(OC)cc4)CCCCN3[C@H]2CO)cc1", "viability index": "1.05 ± 0.022"}
{"smiles": "COc1cccc(-c2ccccc2[C@H]2[C@@H](CO)N(C(=O)Cc3ccccc3)[C@H]2C#N)c1", "viability index": "1.04 ± 0.19"}
{"smiles": "Cc1cccc(S(=O)(=O)N2C[C@@H](O)COC[C@H]3O[C@@H](CC(=O)Nc4ccccc4)CC[C@@H]32)c1", "viability index": "1.12 ± 0.027"}
{"smiles": "COC(=O)C[C@@H]1CC[C@H]2[C@H](COc3ccc(NS(=O)(=O)c4ccc(C)cc4)cc3C(=O)N2C)O1", "viability index": "1.01 ± 0.023"}
{"smiles": "COc1ccccc1C(=O)Nc1ccc2c(c1)C(=O)N(C)C[C@@H](OC)[C@H](C)CN(C(C)=O)[C@@H](C)CO2", "viability index": "1.05 ± 0.041"}
{"smiles": "O=C(C[C@H]1CC[C@H]2[C@@H](COC[C@@H](O)CN2Cc2ccc(C(F)(F)F)cc2)O1)N1CCc2ccccc2C1", "viability index": "0.968 ± 0.024"}
